# According to PubChem BioAssay AID2147 (National Center for Advancing Translational Sciences (NCATS), 2009):
# About 3,600 (1.6%) of roughly 230,000 compounds were called active. The inconclusive results got no clear call from the source; some entries with a clear call stand among them for comparison. Calls come from the whole dose curve; as a rule, active = well fitted inhibition curve with a large enough effect (not every such curve was filed as active); inconclusive = small, poorly fitted or top-dose-only effect, or another doubt; inactive = no such curve, though single readings can be large or run the other way. Potencies of inconclusive entries are doubtful fits and often do not repeat.
# Target: Lysine-specific demethylase 4E (Homo sapiens) (UniProt B2RXH2)
# Experiment: qHTS Assay for Inhibitors of Human Jumonji Domain Containing 2E (JMJD2E)
# Conditions: JMJD2E catalytic domain, FDH-coupled NADH fluorescence (FDH is formaldehyde dehydrogenase); series mostly up to 57.1 µM; activity change, negative = inhibition: at the top concentration
# Note: nearly all actives have a fitted effect of over 50% in size.
# Potency is the fitted concentration of half-maximal effect; tags give direction and shape of the fitted curve.
# 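Throughout, for activity change, negative = inhibition: 0% = wells with enzyme and -100% = buffer wells without enzyme.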
# UniProt B2RXH2, sequence (B2RXH2 whole entry, looked up, the tested form may be a part): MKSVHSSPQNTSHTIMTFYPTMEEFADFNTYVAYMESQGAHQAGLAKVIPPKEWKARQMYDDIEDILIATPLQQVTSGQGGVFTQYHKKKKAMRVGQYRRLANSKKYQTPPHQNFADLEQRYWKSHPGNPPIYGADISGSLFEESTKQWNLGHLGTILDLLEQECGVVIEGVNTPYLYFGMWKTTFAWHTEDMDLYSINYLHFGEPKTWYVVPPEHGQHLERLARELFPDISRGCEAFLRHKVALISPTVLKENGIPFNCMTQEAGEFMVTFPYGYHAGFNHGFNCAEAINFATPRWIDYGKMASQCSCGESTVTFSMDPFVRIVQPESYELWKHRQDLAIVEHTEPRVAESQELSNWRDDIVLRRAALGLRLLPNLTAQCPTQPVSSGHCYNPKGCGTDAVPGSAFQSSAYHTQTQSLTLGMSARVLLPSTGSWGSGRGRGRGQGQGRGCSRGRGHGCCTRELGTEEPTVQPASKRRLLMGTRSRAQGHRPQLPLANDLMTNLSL
SMILES,Potency,"activity change, negative = inhibition"
Oc1cccc2cnccc12,"inconclusive: 28.2 µM [inhibitor, single point]",–
COc1ccccc1N(CC(=O)NCC1CCCO1)C(=O)Cn1nnc(-c2cccs2)n1 (centres undefined),"inconclusive: 10 µM [inhibitor, partial curve]",–
Cc1nc(NCCO)c2nc(-c3ccccc3)n(CCN(C)C)c2n1,"inconclusive: 31.6 µM [inhibitor, partial curve]",–
CCN(CC)C(=O)CSc1nc(-c2ccco2)cc(C(F)(F)F)c1C#N,"inconclusive: 28.2 µM [inhibitor, partial curve]",–
Cc1ccc2nc(-c3ccc(SCC(=O)Nc4nnc(C)s4)nc3)[nH]c2c1,"inconclusive: 31.6 µM [inhibitor, partial curve]",–
CCCn1c(N)c(C(=O)CSc2nnc(C)n2Cc2ccccc2)c(=O)n(C)c1=O,"inconclusive: 39.8 µM [inhibitor, single point]",–
Cc1cc(C2=CC(C)(c3cc(C)oc3C)Nc3nc(C(F)(F)F)nn32)c(C)o1 (centres undefined),"inconclusive: 28.2 µM [inhibitor, single point]",–
Clc1ccc2nc(CSc3nc4ccccc4o3)cn2c1,"inconclusive: 39.8 µM [inhibitor, single point]",–
CCCC(=O)N(Cc1cc2ccccc2[nH]c1=O)c1ccccc1OC,"inconclusive: 39.8 µM [inhibitor, single point]",–
O=C(CSc1ccc(-c2ccco2)nn1)NC1CCCC1,"inconclusive: 25.1 µM [inhibitor, single point]",–
COC(=O)c1sc(-c2ccccc2)cc1NC(=O)c1ccc(F)cc1,"inconclusive: 35.5 µM [inhibitor, single point]",–
O=C1CCCN1CC1CCCN(Cc2nc(COc3ccccc3)no2)C1 (centres undefined),–,inactive: -5.02%
CCOC(=O)Cn1c(=NC(=O)CSC(C)=O)sc2cc(OC)ccc21,"inconclusive: 22.4 µM [inhibitor, partial curve]",–
OC1(c2cccc(C(F)(F)F)c2)CCN(c2ncnc3c2[nH]c2ccc(F)cc23)CC1,"inconclusive: 35.5 µM [inhibitor, single point]",–
Fc1ccc(N2N=C(c3cccs3)CC2c2ccco2)c(F)c1 (centres undefined),"inconclusive: 28.2 µM [inhibitor, partial curve]",–
Cc1cc(-c2ccccc2)nc2[n+]1CCN2C,"inconclusive: 35.5 µM [inhibitor, single point]",–
COc1cc(C(O)c2nc3ccccc3s2)cc(OC)c1OC (centres undefined),–,inactive: 11.8%
O=[N+]([O-])c1ccc(C(O)CN=Cc2ccc(O)cc2O)cc1 (centres undefined),"inconclusive: 28.2 µM [inhibitor, partial curve]",–
COCCn1c(SCC(=O)N2CCCCC2)nc2cccnc21,–,inactive: 4.55%
CC(=O)Cn1cnc2sc(-c3ccccc3)cc2c1=O,"inconclusive: 39.8 µM [inhibitor, single point]",–
CN1C2C=C3C(C#N)=C(N)C(C#N)(C#N)C(c4ccc(Br)cc4)C3C1CC2 (centres undefined),"inconclusive: 25.1 µM [inhibitor, partial curve]",–
COc1cc(/C=C\C(=O)Nc2cc(=O)n(C)c(=O)n2C)cc(OC)c1OC,–,inactive: -17.6%

SMILES,Potency,"activity change, negative = inhibition"
C=CCn1c(NC(=O)c2ccccc2Cl)c(C#N)c2nc3ccccc3nc21,"inconclusive: 28.2 µM [inhibitor, partial curve]",–
O=C(Nc1ccc2sccc2c1)c1ccc(Cl)s1,"inconclusive: 35.5 µM [inhibitor, single point]",–
c1ccc(-c2ccc(SCc3cccnc3)nn2)nc1,"inconclusive: 39.8 µM [inhibitor, single point]",–
Clc1nnc(NN=C2CCCC2)c2ccccc12,"inconclusive: 22.4 µM [inhibitor, partial curve]",–
Cc1cc(NC(=O)CSc2nc(-c3cccs3)cc(C(F)(F)F)n2)no1,"inconclusive: 35.5 µM [inhibitor, single point]",–
Cc1cc2ccccn2c1C(=O)Nc1ccc(Cl)cc1,"inconclusive: 31.6 µM [inhibitor, partial curve]",–
CCOc1cc(/C=C/C(=O)O)ccc1OCCO,"inconclusive: 31.6 µM [inhibitor, partial curve]",–
CCn1c(-c2ccco2)n[nH]c1=S,"inconclusive: 28.2 µM [inhibitor, partial curve]",–
CC1CCN(C(=S)Nc2ccc3nc4n(c(=O)c3c2)CCCCC4)CC1,"inconclusive: 31.6 µM [inhibitor, partial curve]",–
COc1ccc(NC2=C(NCCO)C(=O)c3ccccc3C2=O)cc1,"inconclusive: 12.6 µM [inhibitor, partial curve]",–
Oc1ccccc1N1CCN(CC(O)COCc2ccccc2Cl)CC1 (centres undefined),"inconclusive: 31.6 µM [inhibitor, single point]",–
COc1ccc(-c2ncc(CN3CCN(CCC(C)C)C(CCO)C3)cn2)cc1 (centres undefined),"inconclusive: 20 µM [inhibitor, partial curve]",–
CCCCN(C)C(=O)CCCCn1c(=O)[nH]c2cc(OCC)c(OCC)cc2c1=O,"inconclusive: 28.2 µM [inhibitor, partial curve]",–
O=c1c2cc(Br)cc(Br)c2oc2nc3n(c(=O)c12)CCCS3,–,inactive: 5.02%
c1ccc(COc2cccc(CNCc3ccccn3)c2)cc1,–,inactive: 4.54%
CCn1c(C(C)NC(=O)c2ccccc2C)n[nH]c1=S (centres undefined),–,inactive: 4.43%
Cc1ccc(NC(=O)CCC(=O)NNC(=O)c2ccccc2[N+](=O)[O-])c(C)c1,–,inactive: 10.2%
CC1(C)CC(=O)c2cc(OCC(=O)N3CCOCC3)ccc2O1,"inconclusive: 31.6 µM [inhibitor, partial curve]",–
CC(C)Cc1nc(N2CCN(C(=O)C(C)C)CC2)c(C#N)c2c1CCC2,"inconclusive: 31.6 µM [inhibitor, partial curve]",–
COc1ccc2[nH]c(C)c(CN3CCCCC3)c(=O)c2c1,"inconclusive: 25.1 µM [inhibitor, partial curve]",–
COc1ccc(C2c3c(-c4ccccc4O)n[nH]c3C(=O)N2Cc2ccco2)cc1OC (centres undefined),–,inactive: -8.2%
O=c1[nH]c2cc3c(cc2cc1CN(CC1CCCO1)S(=O)(=O)c1ccc(Cl)cc1)OCCO3 (centres undefined),"inconclusive: 3.55 µM [inhibitor, full curve]",–
